The text below walks through data of the RNAGym collection of RNA variant scans (doi:10.7554/elife.90254).

The source gives no read counts; variants with many changes may rest on few reads.

B1: LINE1-full (parent)
chain: UACGUAGGUGGUUUUCCCCUGAUAGUGCUAAGGGGGCCUGGAAGUUUGGACUGGGCAGAGCUCAACACAGCGUGGCAAAGUGGCUGUGGCUAGACUGCCUCUCUGGAUUCCUCGUCACUCAGCAGGGCAUCUCUGAGAGAAAUGCC

Variants of B1 are the subject of the data set. Put plainly: self-cleavage, relative activity (ratio to wild type); higher = more cleavage; in vitro, sequencing; the parent is a self-cleaving ribozyme.
On to U20G A24U U96C A124G, for which the self-cleavage amounted to 0.

With G21A A94G U119A, the self-cleavage came out at 0.15.

Turning to U20C C37A A77G, the self-cleavage was 1.54.

Regarding U20C A138G A142G, the self-cleavage came out at 1.97.

Take U20C U45C G53U U119A A129G: the self-cleavage came to 1.21.

For U20C A77U A140G, the self-cleavage was determined as 1.36.

On to A22G G44A C84U U100C A107G A138G, for which the self-cleavage was 0.11.

With U20C A31U U73A, the self-cleavage is 1.09.

With U20C U23A U119C, the self-cleavage was determined as 0.91.

Consider A22G U26C U39C G75A A78U C90U, for which the self-cleavage was determined as 0.07.

Regarding A22G U46A U87A, the self-cleavage came out at 0.02.

Turning to U20C A22U U112A, the self-cleavage came to 0.93.

On to U20C A43G U73C U132C, for which the self-cleavage was determined as 0.66.

As to G21A U29C G36C, the self-cleavage stood at 1.58.

In the case of A22G A59G A64U, the self-cleavage was 0.25.

In the case of A22G A57U A129U U134C, the self-cleavage stood at 0.2.

In the case of A22G A77U U132C, the self-cleavage is 1.62.

Consider U20C U47C G122A, for which the self-cleavage turned out to be 2.19.

As for U20A U102C A129U, the self-cleavage is 1.1.

Consider A22C U39A U102C, for which the self-cleavage turned out to be 0.56.

Take U20C U26A A42G U73C: the self-cleavage was 2.04.

Regarding U20A U81C G127A, the self-cleavage stood at 0.93.

In the case of U20C U29G U39A C113A, the self-cleavage is 1.67.

As for A22G C116A A138G, the self-cleavage is 1.21.

As to A22G C71U C123A, the self-cleavage stood at 1.13.

Regarding A22G G74A C128U A129G, the self-cleavage came to 1.04.

Take U20C U45C A65G: the self-cleavage came out at 0.

On to U20G U85C U91C U96A C145A, for which the self-cleavage turned out to be 0.

Consider U20C U85C A138G, for which the self-cleavage turned out to be 0.47.

Take A22G G75A A117G U119C A142G: the self-cleavage was determined as 1.96.

In the case of A22C A94U U119A, the self-cleavage came out at 0.46.

As to U20C A78G G97U A121G U134A, the self-cleavage worked out at 0.

Turning to U20A U39C U115C, the self-cleavage is 0.51.

Take A22G A65G G137A: the self-cleavage came out at 0.

Regarding U20A U108C U109C, the self-cleavage worked out at 0.66.

For A22G C71U U73A, the self-cleavage was 0.15.

As to U20C G75A A124G, the self-cleavage was found to be 0.79.

As to G21A G105A A138G, the self-cleavage came out at 1.94.

Take A22G A57G U62C: the self-cleavage amounted to 0.37.

With A22G A42G C98G, the self-cleavage came out at 0.38.

Turning to U20C U26C A64U U87G, the self-cleavage was determined as 0.13.

Turning to U20A U62C A77U, the self-cleavage is 0.08.

In the case of G21U A22G A64U, the self-cleavage is 0.23.

Turning to U20C G49U U62A U81C A121G A142U, the self-cleavage was found to be 0.05.

On to U20A U87C U102C G127U U130C A142G, for which the self-cleavage amounted to 0.29.

Regarding A22G A31U C38U, the self-cleavage was 0.84.

Consider U20C A43G U47C C51U, for which the self-cleavage stood at 1.47.

As to A22G A77G A124U, the self-cleavage was 2.41.

With U20C G75A A78G U100C, the self-cleavage amounted to 1.62.

On to U20G A64G A92U A121C A129U, for which the self-cleavage is 0.25.

Take G21U U52C A57G G139U: the self-cleavage was found to be 0.89.

With U20G A69G A77G, the self-cleavage is 0.92.

U20C U100C U115C: the self-cleavage was 1.53.

Consider A22G A69G U81A, for which the self-cleavage is 0.45.

As for U20C G72A A77U, the self-cleavage came to 1.41.

Turning to A22G A136G A140G, the self-cleavage was determined as 2.25.

Take U20C A22U A42G A43G U96A A138U: the self-cleavage is 0.12.

For U20C A57U A78G, the self-cleavage was found to be 0.

Consider U20C U46A C90U, for which the self-cleavage is 0.07.

As for U20C A50G G125U, the self-cleavage is 1.13.

For the variant A22G G74A U85A U109C A142G, the self-cleavage was determined as 0.05.

Consider A22G A57C A79C, for which the self-cleavage was 0.

U20C U47A U52A U96G: the self-cleavage stood at 0.05.

As for G21A C61U U91C, the self-cleavage is 0.05.

Turning to U20C U29C A67U G127A, the self-cleavage came to 0.12.

With U20C U26C U47C, the self-cleavage was determined as 2.09.

U20C A22U U39C A64U G89A A142G: the self-cleavage was determined as 0.04.

On to A22G G55A U132A, for which the self-cleavage came to 0.87.

On to A22G U39A U96A A140U, for which the self-cleavage came to 0.12.

As to U20C A30U U52A, the self-cleavage came out at 1.36.

Regarding A22G A43G U132A, the self-cleavage is 0.93.

For U20C G33A C56U A136G, the self-cleavage was 0.26.

Regarding G21A U108C G135A, the self-cleavage amounted to 0.54.

For the variant U20G U26A A77G C101A, the self-cleavage is 1.12.

Take U20A U130A A141G: the self-cleavage was 1.11.

For the variant U20C U62C A67G A129G A140G, the self-cleavage was determined as 0.

Regarding U20C A77G C99U, the self-cleavage turned out to be 1.37.

In the case of U20A U73A A138G, the self-cleavage came out at 2.39.

For the variant A22G A77G A129G A136G, the self-cleavage stood at 2.3.

For the variant U20A U104C A141G, the self-cleavage came to 1.41.

In the case of U20A U46C U62C A77G, the self-cleavage turned out to be 0.

In the case of G21A A22G G122A, the self-cleavage came to 1.

Turning to A22G A69G U73A C120U, the self-cleavage was found to be 1.18.

In the case of G21U U26A G41A A43U U102C A141G, the self-cleavage is 0.84.

With U20A U52A A67U A136G, the self-cleavage was determined as 0.24.

For A22G G35A U115C A121U A140G, the self-cleavage is 1.33.

Take U20C A124U A142G: the self-cleavage is 0.58.

For the variant A22G A65G A124G, the self-cleavage was determined as 0.38.

On to U20A U47A U119A, for which the self-cleavage was determined as 1.36.

For U20C G53U U134A, the self-cleavage is 0.87.

With U20C U26C A57G G97A, the self-cleavage was 0.

With A22G G54A U100C U115A A141G, the self-cleavage amounted to 0.

As to U20A U96C U112C, the self-cleavage came to 0.

For the variant G21A A77G U132C, the self-cleavage was 1.93.

Regarding U20C A42G U73C A94G U96A A138G, the self-cleavage turned out to be 0.

As for U20C G40U A121G A138G, the self-cleavage was 1.15.

U20C G82A A117G: the self-cleavage came to 0.54.

Regarding A22G U26G U104C, the self-cleavage was 2.04.

Take U20C U39A C145A: the self-cleavage is 1.65.

Take U20C G48A U108C: the self-cleavage amounted to 2.26.

For the variant U20C U29A A30G U62C, the self-cleavage amounted to 0.44.

On to A22G U39C U47A A57G C133U, for which the self-cleavage came out at 1.02.

Take A22G G27A U87C: the self-cleavage was found to be 0.12.

On to A22G A107G A138U, for which the self-cleavage turned out to be 1.11.

G21A U46C U143C: the self-cleavage worked out at 0.95.

In the case of U20C U96A U134C, the self-cleavage came out at 0.17.

For A22G A78G U134A A141G, the self-cleavage came to 0.88.

As to U20A U73A U104A U112G C113U A117G A124U A129U, the self-cleavage was determined as 1.81.

As for U20C A59G U102C, the self-cleavage was found to be 0.15.

Consider U20C A67G A140G, for which the self-cleavage worked out at 0.34.

As for U20G G86A A121U A136G, the self-cleavage was 0.13.

Take A22G A94C U96C: the self-cleavage is 0.

For U20C U73C G88A, the self-cleavage worked out at 0.1.

As for U20G U52G A129G, the self-cleavage turned out to be 2.76.

With A22G A30U U47C A79U C84U, the self-cleavage was 0.1.

As for A22G A57G A138G A140G, the self-cleavage came to 0.31.

As to U20C U39A G114A U134C C146U, the self-cleavage was found to be 1.64.

With U20C U47G A136G, the self-cleavage came out at 1.1.

Consider U20C A67G G88A U134A, for which the self-cleavage worked out at 0.04.

For the variant A22G A59G A77G A142G, the self-cleavage stood at 0.26.

Consider A22G A94U U108A U115A, for which the self-cleavage was determined as 0.08.

On to A22G U26A U29A U39A U104C, for which the self-cleavage was 1.65.

For U20C A24G U46A U130A U143A, the self-cleavage is 0.57.

As to U20C A31U A136G, the self-cleavage was 1.67.

Take A22G U23C A64G: the self-cleavage turned out to be 0.63.

Consider A22G A64U U87C U100C, for which the self-cleavage came out at 0.

A22G A57G U91C G144A: the self-cleavage is 0.56.

For A22G A64U U73A C76U U85A A142G, the self-cleavage came out at 0.05.

As to U20C U119C C131U A138G, the self-cleavage stood at 1.34.

Take U20C A31U A107G: the self-cleavage was found to be 2.21.

With U20C A69G A129U, the self-cleavage was determined as 0.96.

Turning to U20G U45C U62C A142G, the self-cleavage was 0.25.

Take U20C U29C A138G: the self-cleavage stood at 1.53.

Turning to A22G U29A U39A A67U, the self-cleavage was determined as 0.51.

For U20C U23C A59U C84A A92U U112C, the self-cleavage came to 0.06.

With U20A U47A U52C G82A, the self-cleavage is 1.65.

Take A22G A42G A77G: the self-cleavage was 2.09.

Consider U20C A42G A94G U112C, for which the self-cleavage was found to be 0.59.

For the variant A22G C56U A79G A138G, the self-cleavage turned out to be 0.3.

U20A U130C A140G: the self-cleavage was found to be 1.73.

Consider U20C A107G A121U, for which the self-cleavage was found to be 1.95.

On to U20A U29G U62C U134C, for which the self-cleavage was determined as 0.35.

Turning to U20G A31G A78G U134C A138G, the self-cleavage is 0.71.

As for U20G A31G U100C, the self-cleavage worked out at 0.84.

For the variant U20C A77U U85C U96C, the self-cleavage was determined as 0.

A22G A69U A136G A142G: the self-cleavage is 0.08.

U20C G36A A43G U91C A140G: the self-cleavage is 0.22.

Regarding A22G G88A A117G A136U, the self-cleavage came to 0.04.

Turning to U20C U52A G97A, the self-cleavage came out at 0.13.

Turning to U20C C99U U100C, the self-cleavage was found to be 1.15.

As for A22G U26C G70C U102C G125U, the self-cleavage was 0.37.

For the variant U20G U109C U130C, the self-cleavage turned out to be 1.72.

Take A22C C99U U108G: the self-cleavage was 1.75.

Regarding U20C A77U C128U, the self-cleavage is 1.25.

Regarding A22G U23C C56U A69U G106A A136G, the self-cleavage was 0.04.

For A22G A31U A57U U91C C145U, the self-cleavage came out at 0.13.

Consider G21U A22G U23C A50U A77G, for which the self-cleavage was 1.

On to A22G A31G A50U, for which the self-cleavage came out at 1.16.

As to U20A U45C A77G C118A, the self-cleavage came to 2.17.

For the variant U20C A67G A69U, the self-cleavage was 0.

Turning to A22G A50G U100A A142C, the self-cleavage was 0.42.

Regarding U20C A57G G106A, the self-cleavage was 0.73.

In the case of U20C U29G G114A U115C, the self-cleavage was determined as 1.41.

As for G21A A43G U85C, the self-cleavage was determined as 0.19.

In the case of U20C A31U A94G U132C, the self-cleavage turned out to be 0.43.

Regarding G21U C66U U112C, the self-cleavage was 0.03.

A22G U39A A43U G72A U73G A121G: the self-cleavage was determined as 1.53.
